In all, about 110,000 compounds went through this assay and about 230 (0.21%) showed an effect of 50% or more. The list shows a part of the results.
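Also: 30 min substrate incubation versus DMSO and 10 µM JCP410 controls.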

The test deals with DPAP1 (Plasmodium falciparum, UniProt Q8IIJ9). The experiment in a line: primary screen, percent inhibition; read by cleavage of a fluorogenic dipeptide substrate; higher = more effect of the substance. The arrangement: species or system P. falciparum D10 trophozoite lysates; single well.
Sequence of DPAP1 (Q8IIJ9 whole entry, looked up): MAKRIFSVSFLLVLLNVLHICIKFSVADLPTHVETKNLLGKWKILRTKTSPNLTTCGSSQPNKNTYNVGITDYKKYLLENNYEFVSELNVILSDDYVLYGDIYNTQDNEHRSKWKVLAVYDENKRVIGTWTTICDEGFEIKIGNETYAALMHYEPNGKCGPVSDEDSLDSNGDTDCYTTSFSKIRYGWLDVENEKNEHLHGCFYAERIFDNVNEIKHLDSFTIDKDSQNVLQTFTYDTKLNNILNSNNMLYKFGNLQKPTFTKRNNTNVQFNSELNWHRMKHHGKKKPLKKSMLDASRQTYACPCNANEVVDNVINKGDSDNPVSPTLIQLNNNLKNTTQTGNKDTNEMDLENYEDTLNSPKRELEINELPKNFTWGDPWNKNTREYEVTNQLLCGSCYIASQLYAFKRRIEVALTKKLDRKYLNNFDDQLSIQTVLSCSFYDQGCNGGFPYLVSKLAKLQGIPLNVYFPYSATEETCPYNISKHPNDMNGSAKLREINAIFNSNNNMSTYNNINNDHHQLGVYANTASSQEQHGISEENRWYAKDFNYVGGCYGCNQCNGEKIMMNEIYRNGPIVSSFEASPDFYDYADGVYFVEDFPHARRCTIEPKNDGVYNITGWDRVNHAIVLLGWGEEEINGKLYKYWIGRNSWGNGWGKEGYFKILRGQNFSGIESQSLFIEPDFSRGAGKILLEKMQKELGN
Turning to `Cc1ccccc1/C=C\C(=O)NCC(=O)O`, the “% Inhibition @ 10 uM” value was -0.971%.
To `Cc1nc(C)c(C(=O)NC(C)c2ccccc2)s1` (stereo not shown) belongs 4%; to `CC(C)C[C@H](NC(=O)N[C@@H](C)c1ccccc1)C(=O)NCC#N`, -4.72%; to `CCOC(=O)c1c(C)n(C)c2ccc(OCC(O)CN3CCN(Cc4ccccc4)CC3)cc12` (stereo not shown), 2.1%.
To `COc1cccc(OC)c1C(=O)Nc1ccc(C)cc1C` belongs -3.04%.
To `COc1ccc(N(CC(=O)Nc2ccccc2Cl)S(=O)(=O)c2ccc(NC(C)=O)cc2)cc1` belongs 5.25%; to `COc1ccc2c(CNCCc3ccccc3Cl)c(C(=O)O)n(Cc3cccc(F)c3)c2c1`, 2.11%; to `COc1ccc(N(CC(=O)Nc2ccc(C)cc2C)S(C)(=O)=O)cc1`, 0.00477%.
Consider `CCOC(=O)CN1CCN(c2ccc(Cl)cc2)CC1`, for which the “% Inhibition @ 10 uM” value was -6.47%.
To `Cc1c(C)n(Cc2ccc(F)cc2)c2ccc(C(=O)NCCCN3CCOCC3)cc12` belongs -1.92%.
To `O=C(Nc1cccc2nsnc12)c1ccc(Cl)cc1Cl` belongs -0.0619%; to `N#CC1=C(N)Oc2c(ccc3ccccc23)C1c1ccc(Cl)cc1Cl` (stereo not shown), -2.42%.
For the compound `Cc1ccsc1CN1CCN(c2ccc(F)cc2)CC1`, the “% Inhibition @ 10 uM” value is listed as -5.68%.
Consider `Cc1cc2oc(=O)cc(C)c2c2occ(C(C)(C)C)c12`, for which the “% Inhibition @ 10 uM” value worked out at 2.21%.
To `CCC(C#CC(O)(c1ccccc1)c1ccccc1)(CC)N(C)C` belongs -2.15%; to `N#CC1=C(N)Oc2nc(-c3ccccc3)[nH]c2C1c1ccc(Cl)c(Cl)c1` (stereo not shown), 12.5%; to `Cc1cccc(N2CN=c3s/c(=C\c4ccccn4)c(=O)n3C2)c1`, -1.6%.
To `Nc1ncc(Cc2ccc(Cl)cc2Cl)s1` belongs -1.6%; to `CCN1CCCC1CNC(=O)c1cccc(Cl)c1` (stereo not shown), 4.88%.
To `COc1ccc(C2=C(C)C(N3CCN(C(=O)c4ccco4)CC3)=NS2(=O)=O)cc1` belongs -1.08%; to `O=C1CC2Sc3ccccc3N=C2N1CN1C(=O)c2ccccc2C1=O` (stereo not shown), 0.0265%; to `CC(CCc1ccccc1)Nc1ncnc2onc(-c3ccc(F)cc3)c12` (stereo not shown), 3.26%.
With `COc1ccc(C(=O)Nc2ccccc2C(N)=O)cc1S(=O)(=O)N1CCCC1`, the “% Inhibition @ 10 uM” value amounted to 3.81%.
To `COc1cc(/C=C2\SC(N3CCCC(C)C3)=NC2=O)ccc1O` (stereo not shown) belongs 7.73%.
To `Cc1cc(Cl)ccc1NC(=O)CCN1C(=O)c2ccccc2C1=O` belongs -5.34%; to `O=C(O)c1cc([N+](=O)[O-])ccc1C(=O)Nc1cccc(O)c1`, -8.11%; to `Oc1nc2ccc(Cl)cc2c(O)c1-c1ccccc1`, -1.07%.
To `COc1ccc(OC)c(S(=O)(=O)N2CCCC2C(=O)N2CCc3ccccc3C2)c1` (stereo not shown) belongs -4.11%.
Turning to `CSc1ncnc2c1oc1nc(-c3ccccc3)cc(C)c12`, the “% Inhibition @ 10 uM” value is recorded as 1.31%.
To `COc1ccccc1CNc1sc(S(C)(=O)=O)nc1S(=O)(=O)c1ccc(Cl)cc1` belongs -2.25%; to `CC(NC(=O)[C@@H](c1ccccc1)N1Cc2ccccc2C1=O)c1ccc2c(c1)OCCO2` (stereo partly shown), -0.465%; to `O=C(CC12CC3CC(CC(C3)C1)C2)OCCNC(=O)c1cccnc1`, -11.4%.
With `O=C(NC(=O)C1CCNCC1)c1cc2c(s1)CSC2`, the “% Inhibition @ 10 uM” value was found to be 0.44%.
As to `COc1ccc(CCNC(=O)Cn2cnc3c(nnn3Cc3ccccc3F)c2=O)cc1OC`, the “% Inhibition @ 10 uM” value is -5.79%.
To `COC(=O)c1ccc(CSc2nnc(CNC(=O)c3cccs3)o2)o1` belongs -1.58%; to `COC(=O)c1ccc(Oc2nc(N3CCCCC3)nc(N3CCCCC3)n2)cc1`, 5.2%.
In the case of `COc1ccc(C2CC(c3ccccc3)=NN2S(=O)(=O)c2ccccc2)c(OC)c1` (stereo not shown), the “% Inhibition @ 10 uM” value amounted to 4.76%.
To `CCOC(=O)c1c(C)n(-c2ccc(C)cc2)c2ccc(OCC(O)CNCC3CCCO3)cc12` (stereo not shown) belongs 0.275%; to `O=C(Cn1ccc2ccccc2c1=O)NCCC(=O)N1CCN(C2CCCCC2)CC1`, 1.5%.
On to `CN1C(=O)C(=Cc2ccccc2Cl)C(=O)N(C)C1=O`, for which the “% Inhibition @ 10 uM” value was -2.32%.
To `COCc1cc(C)nc2sc(C(O)c3ccccc3)c(NC(=O)c3ccccc3)c12` (stereo not shown) belongs -3.34%; to `N#Cc1cc(Oc2ccc(Br)cc2)nc2ccccc12`, -3.75%; to `CCCCNC(=O)C1CCN(S(=O)(=O)N(CC)CC)CC1`, -2.26%.
For `CCn1c(C)c(C)c2cc(C(=O)N3CCCC3)ccc21`, the “% Inhibition @ 10 uM” value is listed as -0.48%.
To `CCOc1cc(/C=C2/SC(=O)N(C(C)C)C2=O)ccc1O` belongs -5.14%; to `COc1ccc(C(=O)/C=C/c2ccccc2Br)c(OC)c1`, 8.76%; to `Cc1cccc(C)c1NC(=O)C1CCCN1S(=O)(=O)c1ccc(Cl)cc1` (stereo not shown), 5.07%.
As for `CC(C)c1ccc(/C=C2\SC(N3CCOCC3)=NC2=O)cc1`, the “% Inhibition @ 10 uM” value is 0.755%.
For the compound `CSc1nc(-c2ccccc2)c2ccccc2n1`, the “% Inhibition @ 10 uM” value was found to be 7.25%.
For `CC(CCc1ccccc1)N1CCOCC1` (stereo not shown), the “% Inhibition @ 10 uM” value is -3.6%.
On to `CCCCN(CCCC)S(=O)(=O)c1ccc2nc(O)ccc2c1`, for which the “% Inhibition @ 10 uM” value was -2.67%.
To `Cc1ccc(Oc2nc3c(C)cccn3c(=O)c2/C=C(\C#N)C(=O)NC2CCS(=O)(=O)C2)cc1` (stereo not shown) belongs 2%.
Take `Cc1c(C(=O)NCc2ccccc2Cl)oc2ccc(S(=O)(=O)N3CCOCC3)cc12`: the “% Inhibition @ 10 uM” value is given as -6.5%.
To `CCc1nn(CCCC(=O)NC2CCN(Cc3ccccc3)CC2)c(=O)c2cc3occc3n12` belongs -3.79%.
To `Cc1ccc(-c2nnn3c2nc(NCc2ccccc2)c2ccccc23)cc1` belongs 5.09%.
To `COc1cc(CC(C)N2CCSCC2)ccc1O` (stereo not shown) belongs 1.9%; to `CCOc1ccc(-c2cn3nc(CC)sc3n2)cc1`, -1.16%; to `CC(CNC(=O)Cn1ncc2c(Cl)cccc21)c1ccccc1` (stereo not shown), -1.11%.
As for `C=Cc1ccc(Cn2c(C(=O)O)c(CNCc3ccccc3Br)c3ccccc32)cc1`, the “% Inhibition @ 10 uM” value was found to be 5.43%.
To `C1CCCC(NCCCN2CCOCC2)CCC1` belongs -1.81%.
On to `COc1cccc(/C=N\n2c(C)nnc2C)c1O`, for which the “% Inhibition @ 10 uM” value is -2.13%.
As to `CC[C@H](NC(=O)[C@H](CC1CCCCC1)OC(=O)N1CCOCC1)C(=O)c1nc2ccccc2o1`, the “% Inhibition @ 10 uM” value is given as -0.207%.
Take `OCCN1CCN(CCOC2c3ccccc3CSc3ccc(Cl)cc32)CC1` (stereo not shown): the “% Inhibition @ 10 uM” value is listed as -2.98%.
To `CC(C)(CO)Nc1ncnc2onc(-c3ccc(F)cc3)c12` belongs 3.94%.

The values above are taken from PMC6919601, “Identification of Plasmodium dipeptidyl aminopeptidase allosteric inhibitors by high throughput screening” (PLoS ONE, 2019).
